Legend:
[1] = target: cell-surface mesothelin (on mesothelin-transfected HEK293, H226, N87 and LS174T-MSLN(2B6) cells) (human, UniProt Q13421 296-598); assay: cell-based or functional assay
[2] = target: T1, recombinant human mesothelin (full-length extracellular domain) (human, UniProt Q13421 296-580, limits assumed); assay: ELISA, human mesothelin coated
T1 construct: extracellular domain; Bought protein coated on ELISA plates at 50 ng per well; also called 重组人间皮素; 人间皮素(MSLN)蛋白

[3] = target: recombinant human CD3 protein (human); assay: ELISA, human CD3 protein coated

B1: CMD007 (M10-based MSLN×CD3 HBiTE) (bispecific antibody)
light: SYVLTQPPSVSVSPGQTARITCSGDALPKQYAFWYQQKPGQAPVLVIYKDSERPSGIPERFSGSSSGTTVTLTISGVQAEDEADYYCQSADSSATSVIFGGGTKLTVLGGGGSGGGGSGGGGSEIVVTQSPATLSVSPGERATLSCRSSTGAVTTSNYANWVQQKPGQAPRGLIGGANKRAPGVPARFSGSLSGDEATLTISSLQSEDFAVYYCALWYSNLWVFGQGTKLEIKRTVAAPSVFIFPPSDEQLKSGTASVVCLLNNFYPREAKVQWKVDNALQSGNSQESVTEQDSKDSTYSLSSTLTLSKADYEKHKVYACEVTHQGLSSPVTKSFNRGE[gap - human IgG1 Fc with T366L Y407H (EU numbers)]
heavy: QLVETGGGLVQPGRSLRLSCAASGFTFDDYAMHWVRQAPGKGLEWVSGISWNSGSIGYADSVKGRFTISRDNAKNSLYLQMNSLRAEDTAVYYCARDSGSSGWYGYFQHWGQGTLVTVSSGSSGGGGSGGGGSEVQLVESGGGLVQPGGSLRLSCAASGFTFNTYAMNWVRQAPGKGLEWVARIRSKYNNYATYYADSVKGRFTISRDDSKNTLYLQMNSLRAEDTAVYYCARHGNFGSSYVSYFAYWGQGTTVTVSSASTKGPSVFPLAPSSKSTSGGTAALGCLVKDYFPEPVTVSWNSGALTSGVHTFPAVLQSSGLYSLSSVVTVPSSSLGTQTYICNVNHKPSNTKVDKKVEPKS[gap - human IgG1 Fc with T366L Y407H (EU numbers)]
notes: Heterodimer of one light and one heavy chain, about 120 kDa non-reduced; also called 基于M10的MSLN×CD3 HBiTE; 靶向间皮素和CD3的双特异性抗体
- EC50 of killing of H226 cells with human PBMC (CCK8, target:effector 1:10) [1]: 0.812 ng/mL
- EC50 of killing of LS174T-MSLN(2B6) cells with human PBMC (CCK8, target:effector 1:5) [1]: 1.69 ng/mL
- EC50 of killing of N87 cells with human PBMC (CCK8, target:effector 1:10) [1]: 1.38 ng/mL
- EC50 [2]: 8.3 nM
- EC50 [3]: 12.1 nM
